# In the supplement of paper PMC4166925:
# ± gives the standard deviation of the averaged measurements. The full ranking holds about 33,000 sequences; the median of “E-score (dimensionless, -0.5 to 0.5)” is about -0.046, and the highest 2% start at about 0.36. This is one part of the list.
# System: T1, SpTbr T-box DNA-binding domain (GST fusion)
# T1 sequence: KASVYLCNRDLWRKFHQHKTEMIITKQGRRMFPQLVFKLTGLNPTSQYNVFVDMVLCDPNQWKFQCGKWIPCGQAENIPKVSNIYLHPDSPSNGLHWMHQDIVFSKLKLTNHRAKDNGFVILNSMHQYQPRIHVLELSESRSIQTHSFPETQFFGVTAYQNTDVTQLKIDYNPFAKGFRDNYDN
# Test: PBM E-score of 8-mer (E-score (dimensionless, -0.5 to 0.5)); Tbr is Tbrain of the sea star Patiria miniata (Pm) or the sea urchin Strongylocentrotus purpuratus (Sp); higher = stronger binding preference; most listed sequences are background and not binding sites
# Conditions: the construct has about 5 more residues each side
# Summary of the method: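 GST-fused Tbr T-box DNA-binding domains (the whole T-box plus about five flanking residues) were expressed in BL21 E. coli at 20 °C and purified by glutathione affinity chromatography. Universal Agilent oligonucleotide arrays were made double-stranded by primer extension, incubated with 200 nM protein in PBS (pH 7.5), then scanned and quantified. Every ungapped 8-mer was scored from probe intensities. The Universal PBM Analysis Suite gave each word an enrichment E-score, averaged over duplicate arrays.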
row,Sequence,PBM E-score of 8-mer
1,CTAGGCAA,-0.129 ± 0.021
2,GACTTGCC,0.123 ± 0.055
3,AATGACAG,0.0199 ± 0.049
4,ACAAGAGA,-0.0789 ± 0.03
5,CTCTGTCC,-0.175 ± 0.0063
6,CATCACGA,0.023 ± 0.054
7,AACGTGGG,0.191 ± 0.00081
8,CCTCTCGA,0.0753 ± 0.052
9,ATGCTCTG,-0.168 ± 0.038
10,AGCATCCG,-0.00374 ± 0.047
11,CAATGTTC,0.0149 ± 0.0044
12,GGATTGTA,-0.0849 ± 0.02
13,ACGGCGCC,0.0439 ± 0.037
14,CAACCCTG,0.014 ± 0.024
15,ACCTACGT,0.0495 ± 0.029
16,GGGACTTA,-0.274 ± 0.00081
17,CTACGAAG,-0.134 ± 0.028
18,ATCGCACA,0.366 ± 0.0063
19,GCGCATGA,-0.0586 ± 0.067
20,CATGCACA,-0.0153 ± 0.014
21,ACCCTATC,0.0781 ± 0.032
22,TCTGAGCA,-0.164 ± 0.098
23,GAGACGTA,0.0575 ± 0.021
24,ATTTGGAG,-0.228 ± 0.0036

row,Sequence,PBM E-score of 8-mer
1,ACATTAAA,-0.164 ± 0.062
2,CCTGTATA,-0.0306 ± 0.022
3,CGTACTCC,-0.0535 ± 0.087
4,CCTATTTC,-0.154 ± 0.055
5,ACCGATCG,0.256 ± 0.12
6,AGTCATAT,-0.228 ± 0.092
7,CGACAGGA,0.00104 ± 0.065
8,AAGCTTAG,-0.108 ± 0.11
9,ACACTACC,0.209 ± 0.061
10,TACCTCCA,-0.0368 ± 0.093
11,AGTGCTAA,0.412 ± 0.015
12,GTCAGCCA,0.127 ± 0.048
13,AGGGATTG,-0.138 ± 0.0095
14,GCGCGGTA,0.014 ± 0.12
15,ATATAGGC,-0.0504 ± 0.058
16,ACCGAAAA,-0.0959 ± 0.065
17,CAACAAGC,0.103 ± 0.051
18,AACCTTAA,-0.218 ± 0.046
19,GGGTGCTA,0.397 ± 0.0085
20,GGGGCTAA,-0.0514 ± 0.017
21,TGATTTAA,-0.156 ± 0.075
22,AAAGTCTC,0.0594 ± 0.02
23,GCAATTGC,0.22 ± 0.011
24,ACAGCGAG,0.197 ± 0.029

row,Sequence,PBM E-score of 8-mer
1,CCACGTGA,0.113 ± 0.019
2,GTGGGCAA,-0.0347 ± 0.096
3,AAGTCGCC,-0.127 ± 0.096
4,CAGGCAAA,-0.369 ± 0.059
5,GCGCTAAC,0.388 ± 0.007
6,CCTGGACC,-0.2 ± 0.043
7,ATCGGAAC,-0.127 ± 0.035
8,ACCCCACG,-0.0697 ± 0.0027
9,ACGTCTAC,-0.177 ± 0.071
10,CCAGAGCG,-0.227 ± 0.069
11,AAATCCCC,-0.248 ± 0.063
12,CTAACTAA,0.173 ± 0.011
13,AGCCTGAA,-0.138 ± 0.022
14,ATGCTCGC,0.167 ± 0.0036
15,AACTTGGC,0.0887 ± 0.0052
16,ACTGACGG,0.1294 ± 0.00097
17,ACTCCCTC,0.0103 ± 0.022
18,ACCATTGG,-0.124 ± 0.049
19,GACGCATA,0.00443 ± 0.039
20,AACGCCTA,0.298 ± 0.038
21,ACACACTC,0.307 ± 0.019
22,CATGAATA,-0.2237 ± 0.0016
23,ATCACACA,0.425 ± 0.017
24,CATCGACA,0.222 ± 0.013

row,Sequence,PBM E-score of 8-mer
1,AAGTGTGG,0.417 ± 0.013
2,AGGCCTGC,-0.174 ± 0.026
3,AGTCCTCG,-0.0622 ± 0.058
4,GGAGCGGA,-0.219 ± 0.0072
5,CGGGAACG,0.0813 ± 0.004
6,ACCCCGAG,-0.103 ± 0.051
7,CAACCCGG,-0.0361 ± 0.034
8,TGATCAAA,-0.209 ± 0.029
9,ATAGTAAA,-0.248 ± 0.05
10,GAAATAGC,0.141 ± 0.044
11,AACCGCCA,0.0837 ± 0.013
12,CCAGTCAC,0.0388 ± 0.0065
13,CTGCGGCA,0.00565 ± 0.019
14,CGTTACCC,0.165 ± 0.034
15,GACGTACA,0.0653 ± 0.026
16,GTTTCAGA,-0.0787 ± 0.024
17,ACCCAAGA,-0.123 ± 0.0028
18,AGCGAGCC,-0.0938 ± 0.044
19,AGAGAGTC,-0.214 ± 0.05
20,CCGTCGGC,0.0545 ± 0.058
21,AAAATTGC,-0.00789 ± 0.088
22,CATCGAGA,0.185 ± 0.04
23,CAATGGTG,0.1615 ± 0.00032
24,ATGGTTCC,-0.179 ± 0.0087

row,Sequence,PBM E-score of 8-mer
1,GTGGGAGA,0.132 ± 0.075
2,CGACCGAG,-0.0379 ± 0.051
3,CAACTTGC,0.182 ± 0.016
4,CGCGCACA,0.135 ± 0.088
5,AAAATGTC,0.00526 ± 0.046
6,AGCTCTGG,-0.196 ± 0.077
7,ATGCTAAC,0.0372 ± 0.018
8,ACTCCGAC,-0.0256 ± 0.077
9,CCACCTAA,0.134 ± 0.083
10,AGACCGCT,-0.121 ± 0.073
11,CTCAGAAG,-0.183 ± 0.022
12,ACGGGTGG,0.0181 ± 0.18
13,CATAACAA,0.00154 ± 0.064
14,AACGGAGC,0.0219 ± 0.041
15,GGCTGCCA,0.0487 ± 0.026
16,CCCCGTAC,-0.0405 ± 0.0072
17,CACACGTC,0.451 ± 0.0092
18,AAGTCACT,-0.116 ± 0.06
19,ACTCCCGG,-0.0315 ± 0.0073
20,CAGATGTC,-0.00265 ± 0.028
21,GATGGAGA,-0.152 ± 0.0066
22,CCTCCCTA,-0.15 ± 0.043
23,CTCAGCTC,-0.0312 ± 0.062
24,ATGACAGC,0.0816 ± 0.054

row,Sequence,PBM E-score of 8-mer
1,GAGGAAGC,-0.126 ± 0.022
2,CTCTACCC,-0.172 ± 0.092
3,ACGGGGCC,-0.189 ± 0.021
4,CTTTAAGC,-0.136 ± 0.004
5,CTCGATCC,-0.175 ± 0.13
6,CGACCAAC,0.0436 ± 0.066
7,AATACTAG,-0.127 ± 0.078
8,AAGATCTC,0.0605 ± 0.0099
9,GGGAACAC,0.188 ± 0.0032
10,ACCCATGC,0.0143 ± 0.024
11,TCATCAGA,0.105 ± 0.044
12,AGACACCG,0.0814 ± 0.026
13,GGTGGTAC,0.171 ± 0.008
14,TATTTCGA,0.00196 ± 0.12
15,AACCAACG,0.05 ± 0.0024
16,AGCAGCGC,-0.0329 ± 0.041
17,GGTGAGTA,0.176 ± 0.021
18,AGTAGCAA,0.0181 ± 0.052
19,CAAAACCC,0.0107 ± 0.019
20,CGCGCCAC,0.28 ± 0.022
21,AGACCCAA,-0.135 ± 0.051
22,CCAGCGTC,0.0784 ± 0.048
23,CACTCATC,0.139 ± 0.041
